Measured values published in article PMC12136788.
Some of the results follow.

B1: chr1:39494447:39494448:+_ENSG00000168653_ENST00000372967|hu_mus|hu_hu_hu_mus_False|58_78 (ssRNA)
RNA: GGGAGUUCUACAGUCCGACGAUCGCACCGAGCGGCGUUCUUAUAGGGCUGUUCUGCACUCUGGAUUAUAAAGUGCCGAUCUAUGUUGAUGCCCAGCUUUUUCUGUAUGUCAAGGAAAGGCAUGGCUCUGCAGUGCCCUUGUCACAACAGAGGAUUGAGCAUCA
B2: chr14:67421766:67421767:-_ENSMUSG00000022048_ENSMUST00000022629|mus_mus|FALSE|FALSE (ssRNA)
RNA: GGGAGUUCUACAGUCCGACGAUCACAUUUUGCUUUAUUGGGUGUUCCGUGGUAAUAUAACACAGACUUCUUAAGGAAUAAUAAACACGAGACUUGUAUUUUACCAUAAUUAUUUUGCCAUUAAGACAGUGGUUACAAAAAAUACAACAGAGGAUUGAGCAUCA
B3: chrX:12717583:12717584:+_ENSMUSG00000031010_ENSMUST00000089302|mus_mus|FALSE|FALSE (ssRNA)
RNA: GGGAGUUCUACAGUCCGACGAUCUUCAGCAUUGGGCACAUUAAUGUUACUGUUGUAGGCGUAAUUAAGAAGAUGUCUUAAAAGAGUAAAGUAGUCGCCUGAGUGUUUAGCCCUCUCUCUGGCUGUGCUCCCCAAAACAGUAAACAACAGAGGAUUGAGCAUCA
B4: chr1:66480114:66480115:+_ENSMUSG00000015222_ENSMUST00000024639|mus_hu|mus_mus_mus_hu_True|48_58 (ssRNA)
RNA: GGGAGUUCUACAGUCCGACGAUCUGGCCUGUGGCGGAUGUUCUUCAGAGAGCCACAUUUGGAUGUCACAUGGCUUAAGUCUAUCUUCUUAGUAACAAUUUGUACCUGCCCCCCUUUAGGCUGGUAUUUGAUGUUGUCUGUUGACAACAGAGGAUUGAGCAUCA
B5: 8451679_8452034_1159_CDS_ENSG00000133026_ENST00000269243|human|control|control (ssRNA)
RNA: GGGAGUUCUACAGUCCGACGAUCAGAAAUAUUUCCAAACUGUAGCACUGAAGAUACUACUUUAAGCAUUGACAGAAUCUCUUCAUGGGAGAAGCCCAUUAUGUGCAUUGCUUCCAUGGUCUCCUGGAAAUUAUCUUUGUCUUGCAACAGAGGAUUGAGCAUCA
B6: chr8:133025090:133025091:+_ENSG00000132294_ENST00000254624|hu_mus|FALSE|FALSE (ssRNA)
RNA: GGGAGUUCUACAGUCCGACGAUCGAAAAGACUAACUGCAAUGGUUUUCCUUUGCAUGCAAAGCAUGCCUUUUAAAAUCACUAAGAAACACAACAUUUUGUACAGCAAAGCUUGUGUUCUGCAUGAAUGCAAGUGAAUAUAUAUCAACAGAGGAUUGAGCAUCA
B7: chr8:95500983:95500984:-_ENSG00000164944_ENST00000437199|hu_hu|hu_hu_hu_mus_True|1_18 (ssRNA)
RNA: GGGAGUUCUACAGUCCGACGAUCAGAACACAUCUAUCGAGUAAAGGACCGUACAUGACGGCCUCUACCACUGCCUCCACUAACAAACUUUCCUCUCGAGCCUCCACUGCCGCUAUUUUGCACUAGCCAGGACGGUCCCAAGUCCAACAGAGGAUUGAGCAUCA
B8: chr3:179342097:179342098:+_ENSG00000136521_ENST00000259037|hu_hu|motif|central (ssRNA)
RNA: GGGAGUUCUACAGUCCGACGAUCCUGGUGCUUAACAUUAUUAGACUUCUAUAACUUCCAUUUGUCAGGUAAAUAAAACACGGACCUUUCAAAGUUGCUACAAUUUUAGGAGUUCACAAAUUCCUAUUUCUCCAGUUUUUAUUACAACAGAGGAUUGAGCAUCA
B9: chr17:64801638:64801639:+_ENSG00000154229_ENST00000413366|hu_mus|hu_hu_hu_mus_False|68_108 (ssRNA)
RNA: GGGAGUUCUACAGUCCGACGAUCUAUAAAUACAUAUACAUAUGUACACAUAUAUAGUAAAACCCUAAUCUAUCACGUAAAGUAGCCAUUCAUUUUUAAAAUUACAUCUACAUUAAAAAAUUAAUAUAUCUGAUAGAGUGCCAGCAACAGAGGAUUGAGCAUCA
B10: chr10:115881139:115881140:-_ENSG00000165813_ENST00000369287|hu_mus|FALSE|FALSE (ssRNA)
RNA: GGGAGUUCUACAGUCCGACGAUCUAUAUCCUUACCAGGGCAACAUGUGUCACAUUUACAGUAUUGAUAGUUUCAAGGGGGGGGUUUCUUCUUCCAAAUUUAAGACUAAAUUUUCUUGUAAAAAUAUUUAGAAAAUAACCAACACAACAGAGGAUUGAGCAUCA
B11: 77717743_77745835_808_CDS_ENSG00000085365_ENST00000538629|human|control|control (ssRNA)
RNA: GGGAGUUCUACAGUCCGACGAUCUGCAGCUUGGAGUACAUGUACAGCAAACUGACAAAUAUAGACGAAGAAGAAUACAAAGAAUCUAAAUGAACUGUCACUCCUGAAAGCUCCAUAAAGUGGUCUGUACCAACAGACAAAUGACAACAGAGGAUUGAGCAUCA
B12: chr20:21312971:21312972:+_ENSG00000088930_ENST00000377191|hu_hu|FALSE|FALSE (ssRNA)
RNA: GGGAGUUCUACAGUCCGACGAUCUCCAAACUGAUUACAAAGACCACAUGGUUUGGGCUUGUUUGGUUUGAAUUCUUCUCUAAUAAUGGUAAAGUUCGGUUCAUGUGUGGCAAGGCCAAGCAUAAUGAGAUCAGCAUCUGCUCCCAACAGAGGAUUGAGCAUCA
B13: chr4:115894766:115894767:+_ENSMUSG00000028698_ENSMUST00000030464|mus_hu|mus_mus_mus_hu_True|38_58 (ssRNA)
RNA: GGGAGUUCUACAGUCCGACGAUCUUCCACACGGAAAUGUACUUCGGGUUUUCCAACGGCCAGUACCAGUCCGGCCAACUACUAGGAACAGGGUCCUGUCCUCCUCUCCUACAGAACACAACAAAAUGCCCCCGAACUUUCAAGCAACAGAGGAUUGAGCAUCA
B14: 13605205_13605325_3394_CDS_ENSG00000038219_ENST00000040738|human|control|control (ssRNA)
RNA: GGGAGUUCUACAGUCCGACGAUCUUUUGGUCUCUGAAGGGAGGAACCGCUGGGAGUGCUCAAAGUGUUUGCUGCUAAUUUUUCUUCUCCUUUGGCCAUUUCUUGUGACAAGCUUCCUCUCCGAUUUUCGCACAACCUUCUACUCAACAGAGGAUUGAGCAUCA
B15: 139357434_139357554_4811_CDS_ENSG00000148396_ENST00000313050|human|control|control (ssRNA)
RNA: GGGAGUUCUACAGUCCGACGAUCCUGGGCCUCACCAGACUCCUCCUCUUCCACCUGCUCCACUGCCUCAUUCGUGAAAUCAAUCAGGUUUGCUUCAUUGGGCGACUUCCCAGGAAGCCACACUGUUCUGUGGUCUCGUAACAGCAACAGAGGAUUGAGCAUCA
B16: chr5:64648305:64648306:+_ENSMUSG00000029174_ENSMUST00000119756|mus_mus|FALSE|FALSE (ssRNA)
RNA: GGGAGUUCUACAGUCCGACGAUCGGGCUGAACCACAUUGUGCCCACCGAUGAGGUGGUUCUCUAUGUCAUUGUCAAAGGAGCUAAAGGUGCUACUGCGGAGGCUAGCGUCCUGGAACUCCUUCCUGAAGGCCAGCGAGCGCAGCAACAGAGGAUUGAGCAUCA
B17: 71105547_71106059_2137_CDS_ENSMUSG00000031391_ENSMUST00000102871|mouse|control|control (ssRNA)
RNA: GGGAGUUCUACAGUCCGACGAUCGUCAUACUUCUCAAUGGGAGAGUUGUGGUCUUCAGCAGGGCUCCAAGACAAGUGCACCUGGCUCUGCUUCAGCAGGUGGCGGUCGGACAGCUCCAGGUGAGGCACUGGCCCAGGGCUCCCCAACAGAGGAUUGAGCAUCA
B18: chr13:14287670:14287671:+_ENSMUSG00000039219_ENSMUST00000039538|mus_mus|FALSE|FALSE (ssRNA)
RNA: GGGAGUUCUACAGUCCGACGAUCAGCAGCACUUUCUCUCUCUUUCUUCUUUAAACGUUUUCUCCUCCUAUCAAUGGAAGCUACUUCAGAUUUUAAAGACAGAUAAUGCUUUCUGAUUUCUUGCAAUUUUUCUUGAAGAAUUGACAACAGAGGAUUGAGCAUCA
B19: chr16:94690093:94690094:+_ENSMUSG00000040785_ENSMUST00000117648|mus_hu|mus_mus_mus_hu_True|98_98 (ssRNA)
RNA: GGGAGUUCUACAGUCCGACGAUCGGGCUGGGAUGACAGCAGACAGCCCUCGAUUCCAGGGGGAAAAAGUCUUAGUCGAUACUAAUUAAAAAGUGUUAAUGAUUUUUGAAAAUCAGAUUACAUCUAUAAAAGAUGAAAAGCAAACAACAGAGGAUUGAGCAUCA
B20: chr21:34923711:34923712:+_ENSG00000159140_ENST00000381679|hu_mus|motif|central (ssRNA)
RNA: GGGAGUUCUACAGUCCGACGAUCCAUCUGAGAAUCCAUAGUGUUGGAUGCUAGCAUCUGGGAGUCCAUGGUAUUGGAUGCGGACAUAUGGGUCUCCAUGGUGUUAGAAGCUAGCAUAUGGGAUUCUUGGGCCAUCAAGGGGUCCAACAGAGGAUUGAGCAUCA
B21: chr1:213174215:213174216:-_ENSG00000174606_ENST00000366962|hu_mus|motif|central (ssRNA)
RNA: GGGAGUUCUACAGUCCGACGAUCUGUUUUUUCUACUUUGGGAACCUGCUGUGCCUCAUAAACACAGUUCUGAGAGAUGCCGGGGUUUGGGGGCCAAAUUGGAAUAGAUAAAAUUCUUUGUCCCCGUGAAGACUGUUCCUGGCCCAACAGAGGAUUGAGCAUCA
B22: chr10:117126822:117126823:-_ENSMUSG00000020184_ENSMUST00000020408|mus_mus|FALSE|FALSE (ssRNA)
RNA: GGGAGUUCUACAGUCCGACGAUCAGGUGCCUUUACUGGCUGAGUCUUCUCUGCAGCCCACAACUCACACAUUUUAGAUUACUACAGUUUCAGAAUUUCAAUAACUUAAAUAUACAAUCCUUCACAUAGUCUUUAACUCUUUACCAACAGAGGAUUGAGCAUCA

What follows are binders tested against T1, UNK ZnF1-3 (human, UniProt Q9C0B0 31-174) (assay: nsRBNS (natural sequence RNA bind-n-seq); RBNS binding buffer (assumed for nsRBNS): 25 mM Tris pH 7.5, 150 mM KCl, 3 mM MgCl2, 0.01% Triton X-100, 500 ug/ml BSA, 20 U/ml SUPERase-In, 4 C; UNK is unkempt and MSI1 is Musashi-1; names of the RNAs are library labels; protein concentration not given here; high values mean tight binding).
T1 sequence: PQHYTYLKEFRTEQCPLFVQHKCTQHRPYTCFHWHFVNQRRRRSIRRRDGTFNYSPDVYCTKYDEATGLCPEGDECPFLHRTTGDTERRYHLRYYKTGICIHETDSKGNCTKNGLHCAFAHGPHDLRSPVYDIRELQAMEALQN

Binder | binding signal
B1 | 0.733 enrichment R
B2 | 0.931 enrichment R
B3 | 1.08 enrichment R
B4 | 0.445 enrichment R
B5 | 0.805 enrichment R
B6 | 0.481 enrichment R
B7 | 0.861 enrichment R
B8 | 0.679 enrichment R
B9 | 1.22 enrichment R
B10 | 1.82 enrichment R
B11 | 0.964 enrichment R
B12 | 0.835 enrichment R
B13 | 0.954 enrichment R
B14 | 0.611 enrichment R
B15 | 0.654 enrichment R
B16 | 0.544 enrichment R
B17 | 0.684 enrichment R
B18 | 0.932 enrichment R
B19 | 1.5 enrichment R
B20 | 1.06 enrichment R
B21 | 1.09 enrichment R
B22 | 0.711 enrichment R
